For 84 variants, self-cleavage results are on record in the RNAGym collection of RNA variant scans (doi:10.7554/elife.90254).

The source gives no read counts; variants with many changes may rest on few reads.

B1: LINE1-full (parent)
chain: UACGUAGGUGGUUUUCCCCUGAUAGUGCUAAGGGGGCCUGGAAGUUUGGACUGGGCAGAGCUCAACACAGCGUGGCAAAGUGGCUGUGGCUAGACUGCCUCUCUGGAUUCCUCGUCACUCAGCAGGGCAUCUCUGAGAGAAAUGCC

The variants in the data set derive from B1. The data set is described as follows: self-cleavage, relative activity (ratio to wild type); higher = more cleavage; in vitro, sequencing; the parent is a self-cleaving ribozyme.
Consider U12G U14C A43G U46C U91A, for which the self-cleavage came to 0.

Regarding U12G A22G A78U A92G A124G, the self-cleavage stood at 0.

With U12C U52A A57U A92U U115G, the self-cleavage came to 0.11.

With U12G U52A U100C, the self-cleavage came out at 0.49.

On to U12G A43C A57U G82A U85C U87A U102C U109A A117U, for which the self-cleavage was found to be 0.

Consider U12G U73A A77U G88A U100C U104C U134C, for which the self-cleavage was 0.

Regarding U12G A67U A78U U87C, the self-cleavage was 0.24.

On to U12G G25A G27A C76U C131A, for which the self-cleavage stood at 1.16.

In the case of U12G U15C G88A U104A, the self-cleavage was 0.29.

For U12C U62A A67C U134A, the self-cleavage stood at 0.17.

As to U12G U115C A138G U143C, the self-cleavage turned out to be 1.41.

As for U12C U104C U109C, the self-cleavage amounted to 0.57.

U12G U14A A57U U62C: the self-cleavage was found to be 0.06.

For the variant U12G U15C U96C, the self-cleavage is 0.65.

For U12G U52C U62C A65G G126U, the self-cleavage came to 0.

For U13A A22G A43G G70A A117U A129G, the self-cleavage was 0.13.

U13A A22G A117U: the self-cleavage worked out at 0.95.

Regarding U12G A107G C110U A117G, the self-cleavage was 1.24.

As to U12G U81A U100A C113U, the self-cleavage worked out at 1.58.

Regarding U13A A57G A69U C71U, the self-cleavage was 0.01.

As to U12G U81C A107G, the self-cleavage was found to be 1.84.

Turning to U12G G36A A140C, the self-cleavage was 1.11.

With U12G U15G C90U G125U, the self-cleavage came to 0.13.

In the case of U12C U87C A141G U143G, the self-cleavage came to 0.13.

For U12G U85G C145A, the self-cleavage was found to be 0.18.

For the variant U12G U15C G41A A141G, the self-cleavage was determined as 0.98.

As to U12G U14C A22G G40C A77U, the self-cleavage amounted to 1.24.

As for U12G G27C A138G A141G, the self-cleavage came out at 0.9.

On to U13A A42G A78G U85C U100A, for which the self-cleavage came out at 0.27.

For the variant U13A A57U A79G U91C G125C, the self-cleavage worked out at 0.09.

U12G U15C A77G A121C G139A: the self-cleavage came out at 1.7.

On to U12G U96A U134G A140G, for which the self-cleavage came to 0.21.

For U12G A59G U73A, the self-cleavage is 0.27.

Turning to U12G U85A U130A, the self-cleavage worked out at 0.29.

Turning to U12G U15C U119G, the self-cleavage was 0.66.

Consider U12G U85G U100C, for which the self-cleavage turned out to be 0.61.

U12C U81C A140G: the self-cleavage worked out at 2.19.

Turning to U12G U102C A141G, the self-cleavage stood at 2.69.

Take U12G G89U G126A: the self-cleavage is 0.02.

Turning to U12C U87A U119C A121U, the self-cleavage came to 0.2.

U12G U46A U143C: the self-cleavage worked out at 1.31.

As to U12G U62C U87A A124G, the self-cleavage was determined as 0.23.

As for U12C U85C U112C, the self-cleavage was 0.

Consider U12G U13A A24G A57G, for which the self-cleavage came out at 0.81.

In the case of U13A A43G C110U A124U, the self-cleavage was found to be 1.24.

Turning to U12G U15C U29C A57U A142U, the self-cleavage was 0.69.

On to U12G G25A A57G G97A A107U U115C, for which the self-cleavage was found to be 0.16.

Turning to U12C U81A U100C, the self-cleavage came out at 2.71.

Regarding U12G U20A A42G A121G, the self-cleavage is 0.

On to U12C U47C A65G, for which the self-cleavage turned out to be 0.

For the variant U12C U52A A129U U132C, the self-cleavage worked out at 1.95.

On to U12C U62A A94G U134C, for which the self-cleavage was 0.

Consider U13A A57G U109G, for which the self-cleavage turned out to be 0.

As for U12G G33U C71G, the self-cleavage turned out to be 0.36.

Consider U13A A57G A124G, for which the self-cleavage worked out at 0.24.

As for U12G C16A U109A, the self-cleavage came out at 0.92.

With U12C U73C U130C, the self-cleavage is 0.98.

Take U12C U85C A94G: the self-cleavage was 0.66.

In the case of U12G A59G A141G, the self-cleavage worked out at 0.13.

As to U12G U47C G75A A129G, the self-cleavage was 0.57.

Turning to U12C U62C A69U A124G A141G, the self-cleavage was 0.06.

With U12G U52A C66A, the self-cleavage came to 0.

For U12G G74A A136G, the self-cleavage was found to be 0.84.

Take U12G U14C U26G G83A: the self-cleavage worked out at 0.

Regarding U13A A42G A65G U81A, the self-cleavage is 0.02.

Take U12C U52A A121U A129U U134C A141G: the self-cleavage was 1.66.

Regarding U12G U15A A64G U109A A136C A142G, the self-cleavage worked out at 0.26.

For U12C U109A A140G U143C, the self-cleavage turned out to be 0.

As to U12G C18U U45C, the self-cleavage came out at 1.1.

As to U12C U81A U143A, the self-cleavage is 2.56.

Consider U12G G34A U115A U132C, for which the self-cleavage amounted to 1.3.

As to U12G U26C U81C A129U, the self-cleavage was 2.3.

Regarding U12G U39A G53A, the self-cleavage came to 0.68.

U12G U14C A69G G70A U73C A124G: the self-cleavage was determined as 0.

As to U12C U91C A141G, the self-cleavage is 0.77.

U12G A59G A67G: the self-cleavage stood at 0.14.

On to U12C U87C U109C, for which the self-cleavage amounted to 0.66.

For the variant U12G A30G U52A U102C U112C, the self-cleavage was 1.02.

U12G A42G A50U U81A A94G A117G U134A: the self-cleavage stood at 0.

In the case of U12C U47C A94G, the self-cleavage is 0.48.

U13A A50U A64G U100C U134G: the self-cleavage was found to be 0.17.

On to U12C U47C U130C, for which the self-cleavage amounted to 2.72.

With U12G A30G U109A, the self-cleavage is 1.62.

For the variant U12G U108C A141G, the self-cleavage turned out to be 0.
